Data published in PubChem BioAssay AID194 (DTP/NCI, 2004).
Inconclusive results are not listed. Some entries of the source have several records that differ or are many. They are shown here; other results are not. An entry can have further records. Values that stand side by side repeat one measurement across runs, samples, wells, individuals or studies.

Tested on: BDF1 mice, B16 melanoma s.c., survival/tumor T/C
Assay: NCI In Vivo Anticancer Drug Screen. Data for tumor model B16 Melanoma (subcutaneous) in B6D2F1 (BDF1) mice
Experimental: The antitumor activity of compounds was measured in mice bearing transplantable tumors. Survival or tumor size were measured and the results are expressed as the measurement made in the treated group (T) divided by the measurement made in the vehicle treated control group (C). The tumor model used in this assay is B16 Melanoma (subcutaneous) in B6D2F1 (BDF1) mice

**Q.** With `Cc1c(N)nc([C@H](CC(N)=O)NC[C@H](N)C(N)=O)nc1C(=O)N[C@H](C(=O)N[C@H](C)[C@@H](O)[C@H](C)C(=O)N[C@H](C(=O)NCCc1nc(-c2nc(C(=O)NCCC[S+](C)C)cs2)cs1)[C@@H](C)O)C(OC1OC(CO)C(O)C(O)C1OC1OC(CO)C(O)C(OC(N)=O)C1O)c1cnc[nH]1` (stereo partly specified) as the compound, how does the T/C (endpoint: median survival time, dose: 12.0 mg/kg/injection, schedule: Q01DX009 (ip), vehicle: saline, higher = longer survival) read?
**A.** 94 % of control, 178 % of control, 181 % of control

**Q.** Which T/C (endpoint: median tumor weight (est.), dose: 0.13 mg/kg/injection, schedule: Q01DX009 (ip), vehicle: saline, higher = larger tumour) does the source give for `COc1cccc2c1C(=O)c1c(O)c3c(c(O)c1C2=O)C[C@@](O)(C(C)=O)C[C@@H]3OC1CC(N)C(O)C(C)O1` (stereo partly specified) here?
**A.** 69 % of control and 158 % of control

**Q.** For `COc1ccc(C[C@H](N)C(=O)NC2C(CO)OC(n3cnc4c(N(C)C)ncnc43)C2O)cc1` (stereo partly specified), which T/C (endpoint: median survival time, dose: 64.0 mg/kg/injection, schedule: Q01DX009 (ip), vehicle: saline, higher = longer survival) is on record?
**A.** 100 % of control and 173 % of control

**Q.** `C[n+]1c(/C=C\C=C\N2CCCCC2)sc2ccccc21` was tested. Which T/C (endpoint: median survival time, dose: 0.2 mg/kg/injection, schedule: Q01DX009 (ip), vehicle: Klucel (hydroxypropylcellulose) (HPC), higher = longer survival) did it give?
**A.** 121 % of control and 182 % of control

**Q.** With `O=C1c2c(O)ccc(O)c2C(=O)c2c(NCCNCCO)ccc(NCCNCCO)c21` as the compound, how does the T/C (endpoint: median survival time, dose: 1.0 mg/kg/injection, schedule: Q01DX009 (ip), vehicle: saline with Tween-80, higher = longer survival) read?
**A.** 102 % of control, 118 % of control, 159 % of control

**Q.** Which results are given for `O=NN(CCCl)C(=O)NC1CCC(=O)NC1=O` (stereo unspecified)?
**A.** T/C (endpoint: median survival time, dose: 0.5 mg/kg/injection, schedule: Q01DX009 (ip), vehicle: Klucel (hydroxypropylcellulose) (HPC), higher = longer survival): 104 % of control and 155 % of control; T/C (endpoint: median survival time, dose: 2.0 mg/kg/injection, schedule: Q01DX009 (ip), vehicle: Klucel (hydroxypropylcellulose) (HPC), higher = longer survival): 115 % of control and 172 % of control

**Q.** How did the T/C (endpoint: median survival time, dose: 10.0 mg/kg/injection, schedule: Q01DX009 (ip), vehicle: water, higher = longer survival) turn out when `CCCCNCCCNCCCNC(=O)c1csc(-c2csc(CCNC(=O)C(NC(=O)C(C)C(O)C(C)NC(=O)C(NC(=O)c3nc(C(CC(N)=O)NCC(N)C(N)=O)nc(N)c3C)C(OC3OC(CO)C(O)C(O)C3OC3OC(CO)C(O)C(OC(N)=O)C3O)c3cnc[nH]3)C(C)O)n2)n1` (stereo unspecified) was run?
**A.** 120 % of control and 154 % of control

**Q.** For `Cc1c(N)nc(C(CC(N)=O)NCC(N)C(N)=O)nc1C(=O)NC(C(=O)NC(C)C(O)C(C)C(=O)NC(C(=O)NCCc1nc(-c2nc(C(=O)NCCCNC(C)c3ccccc3)cs2)cs1)C(C)O)C(OC1OC(CO)C(O)C(O)C1OC1OC(CO)C(O)C(OC(N)=O)C1O)c1cnc[nH]1` (stereo unspecified), which T/C (endpoint: median survival time, dose: 2.0 mg/kg/injection, schedule: Q01DX009 (ip), vehicle: water, higher = longer survival) is on record?
**A.** 113 % of control and 163 % of control

**Q.** And the T/C (endpoint: median survival time, dose: 4.0 mg/kg/injection, schedule: Q01DX009 (ip), vehicle: water, higher = longer survival)?
**A.** 121 % of control and 150 % of control

**Q.** How did the T/C (endpoint: median survival time, dose: 4.0 mg/kg/injection, schedule: Q02DX009 (ip), vehicle: saline, higher = longer survival) turn out when `S=P(N1CC1)(N1CC1)N1CC1` was run?
**A.** 102 % of control and 153 % of control
